These are literature values, as cited in PubChem BioAssay AID1259410 (Chemical Carcinogenesis Research Information System (CCRIS), 2018).

The source gives many values for each of these; only a part stands here.

For this data set, the system named is rodent tumor promotion studies, tumor incidence. Put plainly: CCRIS tumor promotion studies. The conditions noted are these: Doses [Promoter]: 0, Doses [Promoter]: 0, Route [Carcinogen]: DERMAL, Route [Promoter]: DERMAL, Species: MOUSE, Strain/Sex: CD-1/FEMALE. From the text:
The CCRIS database contains chemical records with carcinogenicity, mutagenicity, tumor promotion, and tumor inhibition test results. It was developed by the National Cancer Institute (NCI). Data are derived from studies cited in primary journals, current awareness tools, NCI reports, and other sources. Test results have been reviewed by experts in carcinogenesis and mutagenesis.
CCRIS provides historical information from the years 1985 - 2011. It is no longer updated.
This is an archive assay for CCRIS tumor promotion studies.

Regarding `CCCCCCCCCCCCCC(=O)O[C@@H]1[C@@H](C)[C@@]2(O)[C@@H](C=C(CO)C[C@]3(O)C(=O)C(C)=C[C@@H]23)[C@@H]2C(C)(C)[C@]12OC(C)=O`, the outcome by setting is: (Carcinogen: 2'-(4-NITROPHENOXY)OXIRANE, 59485-08-4, Carcinogen: 2'-(4-NITROPHENOXY)OXIRANE, 59485-08-4, Doses [Carcinogen]: 1, 2 UMOL IN 0.2 ML 15% DMSO IN ACETONE 1/WK FOR 5 WK, Doses [Carcinogen]: 1, 2 UMOL IN 0.2 ML 15% DMSO IN ACETONE 1/WK FOR 5 WK, 15 NMOL IN 0.1 ML ACETONE ONCE 18-24 HR PRIOR TO EACH CARCINOGEN DOSE THEN 2/WK FOR DURATION OF STUDY (STUDY DURATION, 15 NMOL IN 0.1 ML ACETONE ONCE 18-24 HR PRIOR TO EACH CARCINOGEN DOSE THEN 2/WK FOR DURATION OF STUDY (STUDY DURATION) “skin: papilloma, carcinoma”; (Carcinogen: 2'-(NITROPHENOXY)OXIRANE, 59485-08-4, Carcinogen: 2'-(NITROPHENOXY)OXIRANE, 59485-08-4, Doses [Carcinogen]: 2 UMOL IN 0.2 ML 15% DMSO IN ACETONE ONCE, 15 NMOL IN 0.1 ML ACETONE ONCE 18-24 HR PRIOR TO CARCINOGEN DOSE THEN 2/WK FOR DURATION OF STUDY (STUDY DURATION: 30, 15 NMOL IN 0.1 ML ACETONE ONCE 18-24 HR PRIOR TO CARCINOGEN DOSE THEN 2/WK FOR DURATION OF STUDY (STUDY DURATION: 30) “skin: papilloma”; (Carcinogen: 3,4-DIHYDRO-DIBENZ[C,H]ACRIDINE, 76186-82-8, Carcinogen: 3,4-DIHYDRO-DIBENZ[C,H]ACRIDINE, 76186-82-8, Doses [Carcinogen]: 0, 50, 200 NMOL IN 0.2 ML ACETONE ONCE (STUDY DURATION: 150 D), Doses [Carcinogen]: 0, 50, 200 NMOL IN 0.2 ML ACETONE ONCE (STUDY DURATION: 150 D), 16 NMOL IN 0.2 ML ACETONE 2/WK FOR 20 WK BEGINNING 10 D POST CARCINOGEN DOSE (STUDY DURATION: 150 D), 16 NMOL IN 0.2 ML ACETONE 2/WK FOR 20 WK BEGINNING 10 D POST CARCINOGEN DOSE (STUDY DURATION: 150 D)) “skin: papilloma”; (Carcinogen: 4-NITROPHENYL VINYL ETHER, 940-14-7, Carcinogen: 4-NITROPHENYL VINYL ETHER, 940-14-7, Doses [Carcinogen]: 1, 2 UMOL IN 0.2 ML 15% DMSO IN ACETONE 1/WK FOR 5 WK, Doses [Carcinogen]: 1, 2 UMOL IN 0.2 ML 15% DMSO IN ACETONE 1/WK FOR 5 WK, 15 NMOL IN 0.1 ML ACETONE ONCE 18-24 HR PRIOR TO EACH CARCINOGEN DOSE THEN 2/WK FOR DURATION OF STUDY (STUDY DURATION, 15 NMOL IN 0.1 ML ACETONE ONCE 18-24 HR PRIOR TO EACH CARCINOGEN DOSE THEN 2/WK FOR DURATION OF STUDY (STUDY DURATION) “skin: papilloma, carcinoma”; (Carcinogen: 4-NITROPHENYL VINYL ETHER, 940-14-7, Carcinogen: 4-NITROPHENYL VINYL ETHER, 940-14-7, Doses [Carcinogen]: 2 UMOL IN 0.2 ML 15% DMSO IN ACETONE ONCE, 15 NMOL IN 0.1 ML ACETONE ONCE 18-24 HR PRIOR TO CARCINOGEN DOSE THEN 2/WK FOR DURATION OF STUDY (STUDY DURATION: 30, 15 NMOL IN 0.1 ML ACETONE ONCE 18-24 HR PRIOR TO CARCINOGEN DOSE THEN 2/WK FOR DURATION OF STUDY (STUDY DURATION: 30) “skin: papilloma”; (Carcinogen: (1AR,2R,3S,13CS)-1A,2,3,13C-TETRAHYDROBENZ[C]OXIRENO[5,6]BENZ[1,2-H]ACRIDINE-2,3 -DIOL, 93780-96-2, Carcinogen: (1AR,2R,3S,13CS)-1A,2,3,13C-TETRAHYDROBENZ[C]OXIRENO[5,6]BENZ[1,2-H]ACRIDINE-2,3 -DIOL, 93780-96-2, Doses [Carcinogen]: 0, 50, 200 NMOL IN 0.2 ML ACETONE ONCE (STUDY DURATION: 150 D), Doses [Carcinogen]: 0, 50, 200 NMOL IN 0.2 ML ACETONE ONCE (STUDY DURATION: 150 D), 16 NMOL IN 0.2 ML ACETONE 2/WK FOR 20 WK BEGINNING 10 D POST CARCINOGEN DOSE (STUDY DURATION: 150 D), 16 NMOL IN 0.2 ML ACETONE 2/WK FOR 20 WK BEGINNING 10 D POST CARCINOGEN DOSE (STUDY DURATION: 150 D)) “skin: papilloma”. Further, the outcome was “skin: papilloma” (Carcinogen: (1AR,2S,3R,13C)-1A,2,3,13C-TETRAHYDROBENZ[C]OXIRENO[5,6]BENZ[1,2-H]ACRIDINE-2,3- DIOL, 93780-98-4, Carcinogen: (1AR,2S,3R,13C)-1A,2,3,13C-TETRAHYDROBENZ[C]OXIRENO[5,6]BENZ[1,2-H]ACRIDINE-2,3- DIOL, 93780-98-4, Doses [Carcinogen]: 0, 50, 200 NMOL IN 0.2 ML ACETONE ONCE (STUDY DURATION: 150 D), Doses [Carcinogen]: 0, 50, 200 NMOL IN 0.2 ML ACETONE ONCE (STUDY DURATION: 150 D), 16 NMOL IN 0.2 ML ACETONE 2/WK FOR 20 WK BEGINNING 10 D POST CARCINOGEN DOSE (STUDY DURATION: 150 D), 16 NMOL IN 0.2 ML ACETONE 2/WK FOR 20 WK BEGINNING 10 D POST CARCINOGEN DOSE (STUDY DURATION: 150 D)); “skin: papilloma” (Carcinogen: (1AR,13CS)-1A,2,3,13C-TETRAHYDROBENZ[C]OXIRENO[5,6]BENZ[1,2-H]ACRIDINE, 93781-04-5, Carcinogen: (1AR,13CS)-1A,2,3,13C-TETRAHYDROBENZ[C]OXIRENO[5,6]BENZ[1,2-H]ACRIDINE, 93781-04-5, Doses [Carcinogen]: 0, 50, 200 NMOL IN 0.2 ML ACETONE ONCE (STUDY DURATION: 150 D), Doses [Carcinogen]: 0, 50, 200 NMOL IN 0.2 ML ACETONE ONCE (STUDY DURATION: 150 D), 16 NMOL IN 0.2 ML ACETONE 2/WK FOR 20 WK BEGINNING 10 D POST CARCINOGEN DOSE (STUDY DURATION: 150 D), 16 NMOL IN 0.2 ML ACETONE 2/WK FOR 20 WK BEGINNING 10 D POST CARCINOGEN DOSE (STUDY DURATION: 150 D)); “skin: papilloma” (Carcinogen: (1AS,2R,3S,13CR)-1A,2,3,13C-TETRAHYDROBENZ[C]OXIRENO[5,6]BENZ[1,2-H]ACRIDINE-2,3 -DIOL, 93781-00-1, Carcinogen: (1AS,2R,3S,13CR)-1A,2,3,13C-TETRAHYDROBENZ[C]OXIRENO[5,6]BENZ[1,2-H]ACRIDINE-2,3 -DIOL, 93781-00-1, Doses [Carcinogen]: 0, 50, 200 NMOL IN 0.2 ML ACETONE ONCE (STUDY DURATION: 150 D), Doses [Carcinogen]: 0, 50, 200 NMOL IN 0.2 ML ACETONE ONCE (STUDY DURATION: 150 D), 16 NMOL IN 0.2 ML ACETONE 2/WK FOR 20 WK BEGINNING 10 D POST CARCINOGEN DOSE (STUDY DURATION: 150 D), 16 NMOL IN 0.2 ML ACETONE 2/WK FOR 20 WK BEGINNING 10 D POST CARCINOGEN DOSE (STUDY DURATION: 150 D)).
